# The list shows a part of the results.
# Assays:
# Experiment in all cases: glycan array binding signal (z-score within array); higher = stronger binding
# Conditions in all cases: glycan notation: IUPAC condensed, linker removed
# [1] = biological target: Fuc(a1-2)[Gal(a1-3)]Gal(b1-4)GlcNAc(b1-2)Man(a1-3)[Fuc(a1-2)[Gal(a1-3)]Gal(b1-4)GlcNAc(b1-2)Man(a1-6)]Man(b1-4)GlcNAc(b1-4)GlcNAc
# Procedure, shortened: (§1)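 The Consortium for Functional Glycomics database supplied 3228 glycan arrays, of which those lacking an available protein sequence were dropped. The binding signal, a within-array Z-score, was averaged across arrays of the same protein sequence and across linkers. Negative scores can be read as non-binding.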
# [2] = biological target: Fuc(a1-2)[Gal(a1-3)]Gal(b1-4)GlcNAc(b1-2)Man(a1-3)[Fuc(a1-2)[Gal(a1-3)]Gal(b1-4)GlcNAc(b1-2)Man(a1-6)]Man(b1-4)GlcNAc(b1-4)[Fuc(a1-6)]GlcNAc
# Procedure, shortened: as §1
# [3] = biological target: Fuc(a1-2)[Gal(a1-3)]Gal(b1-4)GlcNAc(b1-3)GalNAc
# Procedure, shortened: as §1
# [4] = biological target: Fuc(a1-2)[Gal(a1-3)]Gal(b1-4)GlcNAc(b1-3)[Fuc(a1-2)[Gal(a1-3)]Gal(b1-4)GlcNAc(b1-6)]GalNAc
# Procedure, shortened: as §1
# [5] = biological target: Fuc(a1-2)[Gal(a1-3)]Gal(b1-4)GlcNAc(b1-6)GalNAc
# Procedure, shortened: as §1
# [6] = biological target: Fuc(a1-2)[Gal(a1-3)]Gal(b1-4)[Fuc(a1-3)]Glc
# Procedure, shortened: as §1
# [7] = biological target: Fuc(a1-2)[Gal(a1-3)]Gal(b1-4)[Fuc(a1-3)]GlcNAc
# Procedure, shortened: as §1
# [8] = biological target: Fuc(a1-2)[Gal(a1-3)]Gal(b1-4)[Fuc(a1-3)]GlcNAc(b1-3)GalNAc
# Procedure, shortened: as §1
# [9] = biological target: Fuc(a1-2)[Gal(a1-4)]Gal(b1-4)GlcNAc
# Procedure, shortened: as §1
# [10] = biological target: Fuc(a1-2)[GalNAc(a1-3)]Gal
# Procedure, shortened: as §1
# [11] = biological target: Fuc(a1-2)[GalNAc(a1-3)]Gal(b1-3)GalNAc(a1-3)[Fuc(a1-2)]Gal(b1-4)GlcNAc
# Procedure, shortened: as §1
# [12] = biological target: Fuc(a1-2)[GalNAc(a1-3)]Gal(b1-3)GalNAc(b1-3)Gal(a1-4)Gal(b1-4)Glc
# Procedure, shortened: as §1
# [13] = biological target: Fuc(a1-2)[GalNAc(a1-3)]Gal(b1-3)GlcNAc
# Procedure, shortened: as §1
# [14] = biological target: Fuc(a1-2)[GalNAc(a1-3)]Gal(b1-3)GlcNAc(b1-2)Man(a1-3)[Fuc(a1-2)[GalNAc(a1-3)]Gal(b1-3)GlcNAc(b1-2)Man(a1-6)]Man(b1-4)GlcNAc(b1-4)GlcNAc
# Procedure, shortened: as §1
# [15] = biological target: Fuc(a1-2)[GalNAc(a1-3)]Gal(b1-3)GlcNAc(b1-2)Man(a1-3)[Fuc(a1-2)[GalNAc(a1-3)]Gal(b1-3)GlcNAc(b1-2)Man(a1-6)]Man(b1-4)GlcNAc(b1-4)[Fuc(a1-6)]GlcNAc
# Procedure, shortened: as §1
# [16] = biological target: Fuc(a1-2)[GalNAc(a1-3)]Gal(b1-3)GlcNAc(b1-3)GalNAc
# Procedure, shortened: as §1
# [17] = biological target: Fuc(a1-2)[GalNAc(a1-3)]Gal(b1-3)GlcNAc(b1-6)GalNAc
# Procedure, shortened: as §1
# [18] = biological target: Fuc(a1-2)[GalNAc(a1-3)]Gal(b1-4)Glc
# Procedure, shortened: as §1
# [19] = biological target: Fuc(a1-2)[GalNAc(a1-3)]Gal(b1-4)GlcNAc
# Procedure, shortened: as §1
# [20] = biological target: Fuc(a1-2)[GalNAc(a1-3)]Gal(b1-4)GlcNAc(b1-2)Man
# Procedure, shortened: as §1
# [21] = biological target: Fuc(a1-2)[GalNAc(a1-3)]Gal(b1-4)GlcNAc(b1-2)Man(a1-3)[Fuc(a1-2)[GalNAc(a1-3)]Gal(b1-4)GlcNAc(b1-2)Man(a1-6)]Man(b1-4)GlcNAc(b1-4)GlcNAc
# Procedure, shortened: as §1
# [22] = biological target: Fuc(a1-2)[GalNAc(a1-3)]Gal(b1-4)GlcNAc(b1-2)Man(a1-3)[Fuc(a1-2)[GalNAc(a1-3)]Gal(b1-4)GlcNAc(b1-2)Man(a1-6)]Man(b1-4)GlcNAc(b1-4)[Fuc(a1-6)]GlcNAc
# Procedure, shortened: as §1
# [23] = biological target: Fuc(a1-2)[GalNAc(a1-3)]Gal(b1-4)GlcNAc(b1-3)Gal(b1-4)GlcNAc
# Procedure, shortened: as §1
# [24] = biological target: Fuc(a1-2)[GalNAc(a1-3)]Gal(b1-4)GlcNAc(b1-3)Gal(b1-4)GlcNAc(b1-3)Gal(b1-4)GlcNAc
# Procedure, shortened: as §1
# [25] = biological target: Fuc(a1-2)[GalNAc(a1-3)]Gal(b1-4)GlcNAc(b1-3)GalNAc
# Procedure, shortened: as §1
# [26] = biological target: Fuc(a1-2)[GalNAc(a1-3)]Gal(b1-4)GlcNAc(b1-3)[Fuc(a1-2)[GalNAc(a1-3)]Gal(b1-4)GlcNAc(b1-6)]GalNAc
# Procedure, shortened: as §1
# [27] = biological target: Fuc(a1-2)[GalNAc(a1-3)]Gal(b1-4)GlcNAc(b1-6)GalNAc
# Procedure, shortened: as §1
# [28] = biological target: Fuc(a1-2)[GalNAc(a1-3)]Gal(b1-4)[Fuc(a1-3)]GlcNAc
# Procedure, shortened: as §1
# [29] = biological target: Fuc(a1-2)[GalNAc(a1-3)]Gal(b1-4)[Fuc(a1-3)]GlcNAc(b1-3)GalNAc
# Procedure, shortened: as §1
# [30] = biological target: Fuc(a1-2)[GalNAc(a1-4)]Gal(b1-4)GlcNAc
# Procedure, shortened: as §1
binder,measurement,setting,value
Epa23 (Candida glabrata) (protein) MGSSHHHHHHSSGLVPRGSHMIPNPFEGTINNFPSGCSPNHGLYNRGLTMELYNYSYIHPQSIQSYFNTSTLKKMEKGQCWDPSYLDVNYPRTGYKTHNRFAKVNGIDGILDFEFNPTRSCVPSKGQLPQNYNYPLQFTLSNFTMLLYGYFKPKVTAKHTFTIFADDLLFLNFGAGNAFDCCQQQDTIDDFGNYQAYALWGSDTQQNTLTVNLDANIYYPIRMFYNNRDFKGALNMYFTTDESNTKINDFSGYLFNIPDSSEGCPAHISYETECGNVSG,glycan array binding signal (z-score),[1],-0.173
same,glycan array binding signal (z-score),[2],-0.205
same,glycan array binding signal (z-score),[3],-0.213
same,glycan array binding signal (z-score),[4],-0.134
same,glycan array binding signal (z-score),[5],-0.247
same,glycan array binding signal (z-score),[6],-0.259
same,glycan array binding signal (z-score),[7],-0.159
same,glycan array binding signal (z-score),[8],-0.204
same,glycan array binding signal (z-score),[9],-0.032
same,glycan array binding signal (z-score),[10],-0.153
same,glycan array binding signal (z-score),[11],-0.274
same,glycan array binding signal (z-score),[12],-0.214
same,glycan array binding signal (z-score),[13],-0.185
same,glycan array binding signal (z-score),[14],-0.207
same,glycan array binding signal (z-score),[15],-0.218
same,glycan array binding signal (z-score),[16],-0.229
same,glycan array binding signal (z-score),[17],-0.324
same,glycan array binding signal (z-score),[18],-0.234
same,glycan array binding signal (z-score),[19],-0.211
same,glycan array binding signal (z-score),[20],-0.251
same,glycan array binding signal (z-score),[21],-0.156
same,glycan array binding signal (z-score),[22],-0.24
same,glycan array binding signal (z-score),[23],-0.241
same,glycan array binding signal (z-score),[24],-0.114
same,glycan array binding signal (z-score),[25],-0.25
same,glycan array binding signal (z-score),[26],-0.177
same,glycan array binding signal (z-score),[27],-0.213
same,glycan array binding signal (z-score),[28],-0.207
same,glycan array binding signal (z-score),[29],-0.299
same,glycan array binding signal (z-score),[30],-0.207
